Consider one molecule from paper PMC11249846 (Protein Science : A Publication of the Protein Society, 2024).

The target of the test is Hsc70‐T204A (human, UniProt P11142, T204A). In words: NMR titration.
UniProt P11142, sequence (P11142 whole entry T204A): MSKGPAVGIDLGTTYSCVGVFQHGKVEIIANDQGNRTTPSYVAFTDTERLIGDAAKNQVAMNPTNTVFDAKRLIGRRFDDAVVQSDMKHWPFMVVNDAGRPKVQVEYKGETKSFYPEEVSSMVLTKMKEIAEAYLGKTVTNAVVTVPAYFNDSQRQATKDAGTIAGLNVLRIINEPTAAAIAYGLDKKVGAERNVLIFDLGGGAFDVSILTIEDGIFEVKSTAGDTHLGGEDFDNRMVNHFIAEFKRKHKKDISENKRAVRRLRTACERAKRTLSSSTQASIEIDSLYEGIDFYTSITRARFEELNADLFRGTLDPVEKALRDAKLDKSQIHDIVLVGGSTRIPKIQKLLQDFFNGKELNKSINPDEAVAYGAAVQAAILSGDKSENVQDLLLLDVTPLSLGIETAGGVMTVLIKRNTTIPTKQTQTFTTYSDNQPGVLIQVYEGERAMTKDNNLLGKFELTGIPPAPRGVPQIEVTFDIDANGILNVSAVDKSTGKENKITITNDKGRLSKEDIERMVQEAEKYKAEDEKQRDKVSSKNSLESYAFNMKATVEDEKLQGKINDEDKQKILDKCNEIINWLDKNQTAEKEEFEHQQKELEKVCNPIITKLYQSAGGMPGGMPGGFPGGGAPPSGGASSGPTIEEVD

B1: (JD‐G/FR)‐S51E (domain or fragment, human, UniProt O60884 1-111, looked up)
chain: MANVADTKLYDILGVPPGASENELKKAYRKLAKEYHPDKNPNAGDKFKEIEFAYEVLSNPEKRELYDRYGEQGLREGSGGGGGMDDIFSHIFGGGLFGFMGNQSRSRNGRR
Take B1: the binding result is given as “binds”.
